Source: the supplement of paper PMC12217912
The list shows a part of the results. The full chains were built here from the parent and the listed change. Values near 0.05 are background.

B1: TEV protease; numbered along this chain (parent)
chain: MGESLFKGPRDYNPISSSICHLTNESDGHTTSLYGIGFGPFIITNKHLFRRNNGTLVVQSLHGVFKVKDTTTLQQHLVDGRDMIIIRMPKDFPPFPQKLKFREPQREERICLVTTNFQTKSMSSMVSDTSCTFPSGDGIFWKHWIQTKDGQCGSPLVSTRDGFIVGIHSASNFTNTNNYFTSVPKNFMELLTNQEAQQWVSGWRLNADSVLWGGHKVFMVKPEEPFQPVKEATQL

Variants of: B1
Test: raw area under fraction-flipped curve 0-4 h after induction (AUC4h, not background-subtracted), DNA-recorder readout of cleavage of the substrate (dimensionless); higher = more cleavage of the substrate by the protease variant
Conditions: temperature: 34 °C; time window: 0-4 h after rhamnose induction
Protocol: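 In vivo DNA recorder in E. coli TOP10(DE3) ΔrhaA at 34 °C. Each TEVp single-site mutant (parent TEVp 0) is paired with a single-site variant of the 7-mer TEVs (canonical ENLYFQ|S). The substrate sits between flexible linkers in a Bxb1-sfGFP-TEVs-SsrA fusion, so cleavage stabilises Bxb1 and speeds flipping of a recombination array, read by NGS. The value is the raw area under the fraction-flipped curve over 0-4 h after rhamnose induction (AUC4h), with ≥20 reads per time point. It is not background-subtracted; inactive controls average about 0.047.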
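Also: Bxb1 expression induced with 0.2% (w/v) L-rhamnose at OD600 near 0.5, cultures sampled hourly, flipped fraction per protease–substrate barcode pair counted by paired-end Illumina sequencing.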

| Variant | area with substrate ENLYFAS | area with substrate ENLYFES | area with substrate ENLYFFS | area with substrate ENLYFIS | area with substrate ENLYFKS | area with substrate ENLYFMS | area with substrate ENLYFNS | area with substrate ENLYFPS | area with substrate ENLYFRS | area with substrate ENLYFSS | area with substrate ENLYFTS | area with substrate ENLYFVS | area with substrate ENLYFWS | area with substrate ENLYFYS | area with substrate ENLYFCS | area with substrate ENLYFDS | area with substrate ENLYFHS | area with substrate ENLYFLS | area with substrate ENLYFGS |
| --- | --- | --- | --- | --- | --- | --- | --- | --- | --- | --- | --- | --- | --- | --- | --- | --- | --- | --- | --- |
| MGESLFKGPRDYNPISSSICHLTNESDGHTTSLYGIGFGPFIITNKHLFRRNNGTLVVQSLHGVFKVKDTTTLQQHLVDGRDMIIIRMPKDFPPFPQKLKFREPQREERICLDTTNFQTKSMSSMVSDTSCTFPSGDGIFWKHWIQTKDGQCGSPLVSTRDGFIVGIHSASNFTNTNNYFTSVPKNFMELLTNQEAQQWVSGWRLNADSVLWGGHKVFMVKPEEPFQPVKEATQL [V113D] | 0.0554 | 0.0714 | 0.0527 | 0.0444 | 0.0604 | 0.0492 | 0.0617 | 0.0525 | 0.0486 | 0.071 | 0.0454 | 0.0438 | 0.0563 | 0.0351 |  |  |  |  |  |
| MGESLFKGPRDYNPISSSICHLTNESDGHTTSLYGIGFGPFIITNKHLFRRNNGTLVVQSLHGVFKVKDTTTLQQHLVDGRDMIIIRMPKDFPPFPQKLKFREPQRENRICLVTTNFQTKSMSSMVSDTSCTFPSGDGIFWKHWIQTKDGQCGSPLVSTRDGFIVGIHSASNFTNTNNYFTSVPKNFMELLTNQEAQQWVSGWRLNADSVLWGGHKVFMVKPEEPFQPVKEATQL [E108N] | 0.0607 | 0.0492 | 0.0559 | 0.0537 | 0.0505 | 0.0546 |  | 0.0482 |  | 0.036 | 0.0545 | 0.0479 | 0.0602 |  | 0.0541 | 0.058 | 0.04 | 0.0554 |  |
| MGESLFKGPRDYNPISSSICHLTNESDGHTTSLYGIGFGPFIITNKHLFRRNNGTLVVQSLHGVFKVKDTTTLQQHLVDGRDMIIIRMPKDFPPFPQKLKFREPQREYRICLVTTNFQTKSMSSMVSDTSCTFPSGDGIFWKHWIQTKDGQCGSPLVSTRDGFIVGIHSASNFTNTNNYFTSVPKNFMELLTNQEAQQWVSGWRLNADSVLWGGHKVFMVKPEEPFQPVKEATQL [E108Y] | 0.0587 | 0.0596 |  | 0.0582 | 0.0612 | 0.0389 | 0.0084 |  | 0.0581 |  | 0.0565 | 0.0418 | 0.0389 |  |  |  | 0.0636 |  |  |
| MGESLFKGPRDYNPISSSICHLTNESDGHTTSLYGIGFGPFIITNKHLFRRNNGTLVVQSLHGVFKVKDTTTLQQHLVDGRDMIIIRMPKDFPPFPQKLKFREPQREERICLVTTNFATKSMSSMVSDTSCTFPSGDGIFWKHWIQTKDGQCGSPLVSTRDGFIVGIHSASNFTNTNNYFTSVPKNFMELLTNQEAQQWVSGWRLNADSVLWGGHKVFMVKPEEPFQPVKEATQL [Q118A] | 0.0499 | 0.0631 | 0.0573 | 0.0607 | 0.0864 | 0.0396 | 0.0738 | 0.0609 | 0.0608 | 0.0707 |  | 0.0942 | 0.0477 |  | 0.0601 | 0.0505 | 0.0627 | 0.0655 | 0.0669 |
| MGESLFKGPRDYNPISSSICHLTNESDGHTTSLYGIGFGPFIITNKHLFRRNNGTLVVQSLHGVFKVKDTTTLQQHLVDGRDMIIIRMPKDFPPFPQKLKFREPQREERICLVTTNFFTKSMSSMVSDTSCTFPSGDGIFWKHWIQTKDGQCGSPLVSTRDGFIVGIHSASNFTNTNNYFTSVPKNFMELLTNQEAQQWVSGWRLNADSVLWGGHKVFMVKPEEPFQPVKEATQL [Q118F] | 0.0623 | 0.0675 | 0.0741 | 0.0572 | 0.0546 | 0.0572 | 0.0539 |  | 0.0596 | 0.0613 | 0.0544 |  | 0.0477 | 0.0665 | 0.0686 |  |  | 0.0545 |  |
